The campaign covered roughly 48,000 compounds. About 550 (1.1%) were called active. About 4% were inconclusive and are not listed. No stated cut-off is given here; in the data, active means potency below about 15 µM; inconclusive means mostly about 16 µM to 33 µM; inactive means weaker than that. The list shows a part of the results.
The compounds below were run against Lysosomal acid glucosylceramidase (Homo sapiens) (UniProt P04062) (assay: Glucocerebrosidase). Conditions: purified enzyme, resorufin glucoside fluorescence (screen aimed at inhibitors), 20 min.
UniProt P04062, sequence (P04062 whole entry, looked up): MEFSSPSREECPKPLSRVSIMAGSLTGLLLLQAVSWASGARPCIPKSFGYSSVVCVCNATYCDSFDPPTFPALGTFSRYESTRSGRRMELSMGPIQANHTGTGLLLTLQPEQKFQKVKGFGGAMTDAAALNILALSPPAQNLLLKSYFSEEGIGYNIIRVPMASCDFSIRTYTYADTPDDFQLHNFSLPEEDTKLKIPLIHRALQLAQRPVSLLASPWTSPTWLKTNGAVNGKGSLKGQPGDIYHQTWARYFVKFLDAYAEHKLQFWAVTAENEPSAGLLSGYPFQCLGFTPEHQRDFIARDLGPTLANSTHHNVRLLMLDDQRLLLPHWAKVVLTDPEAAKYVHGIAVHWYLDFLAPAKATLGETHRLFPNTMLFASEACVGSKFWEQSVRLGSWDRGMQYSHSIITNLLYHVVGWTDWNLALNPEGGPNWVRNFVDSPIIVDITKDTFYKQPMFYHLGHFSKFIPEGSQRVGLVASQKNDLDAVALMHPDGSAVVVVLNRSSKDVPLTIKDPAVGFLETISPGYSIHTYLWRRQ
Method in brief: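 Normal human glucocerebrosidase (0.2 nM final) was assayed with resorufin β-D-glucopyranoside (30 uM final) in 50mM citric acid/KH2PO4, 10mM sodium taurocholate, 0.01% tween-20, pH 5.9. Compounds were titrated; fluorescence (Ex 548, Em 600) read after 20 min at RT.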
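Further: the screen sought inhibitors.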
Potency means the concentration at half of the fitted maximal effect.

Potency, inactive:
O=C(NCc1ccc2c(c1)OCO2)c1cccc(S(=O)(=O)N2CCCCC2)c1 > 76.9 µM
CCCOc1cccc(C(=O)N(Cc2ccco2)C2CCS(=O)(=O)C2)c1 (stereo not drawn) > 76.9 µM
CN(C)c1ccc(NC(=O)c2ccc(COc3cccc(Cl)c3)o2)cc1 > 76.9 µM
COC(=O)c1nc(NC(=O)C(C)(C)C)n[nH]1 > 76.9 µM
O=C(Nc1ccc2c(c1)OCCO2)C1CCN(c2nnnn2-c2ccccc2)CC1 > 76.9 µM
CCn1c(SCC(=O)Nc2nc(C)cs2)nnc1C(NC(=O)c1ccccc1Cl)C(C)C (stereo not drawn) > 76.9 µM
COc1ccc(-c2cc(C(=O)N3CCOCC3)no2)cc1OC > 76.9 µM
COc1cccc(C(=O)Nc2ncc3c(n2)CC(c2ccc(OC)cc2OC)CC3=O)c1 (stereo not drawn) > 76.9 µM
COc1ccc(OC)c(NC(=O)Cn2c(-c3ccc(Cl)cc3)noc2=O)c1 > 76.9 µM
COc1cccc2cc(C(C)=O)c(=O)oc12 > 76.9 µM
COC(=O)c1ccccc1N(C)C(=O)C12CCC(C)(C(=O)O1)C2(C)C (stereo not drawn) > 76.9 µM
CCC(C)NC(=O)C1(C)CCC(=O)N1Cc1ccccc1OC (stereo not drawn) > 76.9 µM
Cc1nn(-c2ccccc2)c2nc(=O)n(-c3ccccc3)cc12 > 76.9 µM
CCN(CC)S(=O)(=O)c1ccc(NC2CCCc3ccccc32)nc1 (stereo not drawn) > 76.9 µM
c1ccc(-n2ncc3c(NCc4ccccn4)ncnc32)cc1 > 76.9 µM
O=C(O)CSCC(=O)NCc1ccccc1 > 76.9 µM
COc1ccc(CCNC(=O)c2nn(C)cc2Cl)cc1 > 76.9 µM
COc1cc(OC)cc(C(=O)Nc2ccccc2N2CCOCC2)c1 > 76.9 µM
COc1ccccc1CN(Cc1cc2cc(C)ccc2[nH]c1=O)Cc1nnnn1Cc1ccco1 > 76.9 µM
CCOC(=O)CN1C2=NCCN2c2ccccc21 > 76.9 µM
O=C(O)c1ncn(Cc2ccccc2)c1C(=O)O > 76.9 µM
N#Cc1c(-c2ccccc2)cc(C2CC2)nc1N > 76.9 µM
COc1cccc(Cn2c(N)c(C#N)c3nc4ccccc4nc32)c1OC > 76.9 µM
Clc1ccc(Cc2nn3c(-c4ccncc4)nnc3s2)cc1 > 76.9 µM
O=C1CCc2cc(S(=O)(=O)N3CCN(c4cccc(Cl)c4)CC3)ccc2N1 > 76.9 µM
CC(C)(C)NS(=O)(=O)c1ccc(CCC(=O)N2CCCCC2)cc1 > 76.9 µM
Cc1csc(NC(=O)c2nc3nc(C)cc(C)n3n2)n1 > 76.9 µM
COc1cccc(C2=NOC(C(=O)NCC3CCCO3)C2)c1 (stereo not drawn) > 76.9 µM
O=C(COc1ccc2ccccc2c1Br)Nc1ncn[nH]1 > 76.9 µM
Cc1nc2cc(-n3ccc(=O)cc3)ccc2n1-c1ccccc1 > 76.9 µM
COC(=O)c1cc(OC)c(OC)cc1NC(=O)CCCCCN1C(=O)CCC1=O > 76.9 µM
O=C(Nc1cccnc1)C1OCCc2ccccc21 (stereo not drawn) > 76.9 µM
O=C(COc1ccc(S(=O)(=O)N2CCOCC2)cc1)Nc1ccc2c(c1)OCCO2 > 76.9 µM
COc1ccc(Cl)c(Cn2c(NCCCO)nc3c2c(=O)n(C)c(=O)n3C)c1 > 76.9 µM
CCOc1ccccc1NC(=O)c1ccccc1N(C)S(C)(=O)=O > 76.9 µM
CN(C)c1ccc(C2C3=C(CCCC3=O)OC3=C2C(=O)CCC3)cc1 > 76.9 µM
Cn1c(CN2CCCCC2)nc2cc(NS(=O)(=O)c3ccc(Cl)cc3)ccc21 > 76.9 µM
CCOC(=O)N1CCC(NC(=O)Cn2ncc3ccccc32)CC1 > 76.9 µM
Cc1nc2sc(C(=O)O)c(N)c2c2c1COC(C)(C)C2 > 76.9 µM
COc1ccc(NC(C)=O)cc1NC(=O)CSc1nnc(-c2ccccc2)n1N > 76.9 µM
CC(C)c1ccc(N2CC(C(=O)Nc3nccs3)CC2=O)cc1 (stereo not drawn) > 76.9 µM
CSc1nsc(SC)c1C(=O)NCCNS(=O)(=O)c1ccc(C)cc1 > 76.9 µM
NC(=O)C1CCN(c2nc(-c3ccccc3)nc3ccccc23)CC1 > 76.9 µM
CC(C)c1cc(C(F)(F)F)n2nc(C(=O)Nc3ccc4c(c3)OCO4)cc2n1 > 76.9 µM
CC1=CC(=C2C(=O)c3ccccc3C2=O)C=C(C)O1 > 76.9 µM
Cc1cc(C(=O)CSc2nc3ccccc3c(=O)[nH]2)c(C)n1C > 76.9 µM
COC(=O)c1cccc(NC(=O)c2nn(C(C)C)c(=O)c3ccccc23)c1 > 76.9 µM
CC1N=C2c3ccccc3N=C(SCc3cc(=O)n4cc(Cl)ccc4n3)N2C1=O (stereo not drawn) > 76.9 µM
CC(C)Cc1nc2oc3c(NCC4CCCO4)ncnc3c2c2c1CCC2 (stereo not drawn) > 76.9 µM
Cn1c(CC(=O)Nc2ccccc2)nnc1SCC(=O)c1ccccc1 > 76.9 µM
Cc1sc(NC(=O)c2oc3ccccc3c2C)c(C#N)c1C > 76.9 µM
COC(=O)c1ccc(CNC(=O)COc2ccccc2Br)o1 > 76.9 µM
Cn1c(=O)c2c(nc(CN3CCN(c4ccccc4F)CC3)n2CCN2CCOCC2)n(C)c1=O > 76.9 µM
O=C(Nc1nccs1)NC1CCCCC1 > 76.9 µM
COC(=O)c1cc2ccsc2n1CC(=O)N(C)c1ccccc1
COCCn1c(SCC(=O)Nc2ccc(S(=O)(=O)N3CCOCC3)cc2)nc2ccccc21 > 76.9 µM
CCn1c(SCC(=O)Nc2ccc(S(N)(=O)=O)cc2)nnc1-c1cccc(OC)c1 > 76.9 µM
COCC(=O)N(C)c1nnc(-c2ccccn2)s1 > 76.9 µM
